Source: PubChem BioAssay AID485294 (National Center for Advancing Translational Sciences (NCATS), 2010)
About 150 (0.041%) of roughly 370,000 compounds were called active. Inconclusive means that the source gave no clear call. Such entries were picked first, then a sample of the others. Calls come from the whole dose curve; as a rule, active = well fitted inhibition curve with a large enough effect; inconclusive = small, poorly fitted or top-dose-only effect; inactive = flat fitted curve, though single readings scatter. No potency is given beside an inconclusive call; the fits are too rough.

The compounds below were run against Beta-lactamase (Escherichia coli (strain K12)) (UniProt P00811) (assay: qHTS Inhibitors of AmpC Beta-Lactamase (assay with detergent)). Settings: AmpC hydrolysis of nitrocefin, absorbance 480 nm, 0.01% Triton; series mostly up to 114 µM.
Sequence of UniProt P00811 (P00811 whole entry, looked up): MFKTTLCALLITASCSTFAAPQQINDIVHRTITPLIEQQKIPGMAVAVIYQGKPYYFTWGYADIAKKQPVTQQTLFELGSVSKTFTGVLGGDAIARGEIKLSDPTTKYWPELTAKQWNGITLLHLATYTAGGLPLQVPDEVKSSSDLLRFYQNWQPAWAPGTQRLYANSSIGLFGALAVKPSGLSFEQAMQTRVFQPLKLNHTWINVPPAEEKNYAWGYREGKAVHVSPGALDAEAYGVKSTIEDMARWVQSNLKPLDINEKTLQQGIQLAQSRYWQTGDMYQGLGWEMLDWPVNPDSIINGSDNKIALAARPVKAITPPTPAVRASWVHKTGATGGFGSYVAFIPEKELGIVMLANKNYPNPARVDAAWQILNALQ
Method in brief: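 20 mM phosphate pH 7.0 + 0.01% (detergent screen) or 0.0001% Triton X-100; 5.3 nM AmpC reagent; cpd preinc 15 min RT; nitrocefin (800 uM stock) to start; A480 q20 s × 4 min; Activity was normalised to no-enzyme and no-compound control wells.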
Note: nearly all actives have a fitted effect of over 25% in size.
Potency is the fitted concentration of half-maximal effect; tags give direction and shape of the fitted curve.

Compound | Potency
O=C(Nc1cc(C(F)(F)F)ccc1F)C1CCC1 | inconclusive [inhibitor, partial curve]
CCc1cccc(CC)c1NC(=S)/C(=C(\[O-])c1ccc(Cl)s1)[n+]1ccccc1 | inconclusive [inhibitor, full curve, poor fit]
CCN(C(=O)c1cc2cccc(OC)c2oc1=O)c1ccccc1 | inconclusive [inhibitor, full curve, poor fit]
NNC(=S)Nc1cc(S(=O)(=O)N2CCOCC2)ccc1N1CCOCC1 | inactive
O=C(/C=C/c1ccc(Cl)c(Cl)c1)NCc1ccco1 | inactive
Cn1c(=O)cc(OCC(=O)NC2CCCCC2)c2ccccc21 | inconclusive [inhibitor, full curve, poor fit]
O=C(Cc1ccccc1)Nc1ccc(Br)c(Cl)c1 | inactive
CCCCSc1nc2c(cnn2-c2ccc(F)cc2)c(=O)[nH]1 | inconclusive [inhibitor, full curve]
CC1(c2ccc(Cl)cc2)NC(=O)N(CC(=O)N2CCN(S(=O)(=O)c3ccccc3)CC2)C1=O (centres undefined) | inactive
CCOc1ccc(-c2nnn(CC(=O)Nc3ccccc3OC)n2)cc1OCC | inconclusive [inhibitor, full curve, poor fit]
COc1cc(NC(=O)c2cccc([N+](=O)[O-])c2)ccc1NC(=O)c1cc2ccccc2o1 | inactive
O=C(COC(=O)CCSc1ccc(Cl)cc1)NCc1ccccc1Cl | inactive
COc1ccc(CCC(=O)NCCS(=O)(=O)N2CCN(c3ccccc3)CC2)cc1 | inactive
Cc1cc(/C=C\c2ccccc2)nc2ccccc12 | inactive
CC(=O)NC(CC(C)C)C(=O)NC(=O)NCc1ccccc1 (centres undefined) | inconclusive [inhibitor, full curve, poor fit]
Cc1ccc(-c2noc(-c3ccccc3NC(=O)C3CC(=O)N(c4cccc(C)c4)C3)n2)cc1 (centres undefined) | inactive
CCC(C)(C)NC(=O)C(c1ccc(OC)cc1)N(CC1CCCO1)C(=O)CCC(=O)Nc1cc(C)on1 (centres undefined) | inconclusive [inhibitor, partial curve]
Nc1c(S(=O)(=O)c2ccccc2)nnn1-c1ccccc1 | inconclusive [inhibitor, partial curve, poor fit]
CCc1nc(N(CC)CC)c2oc3ccccc3c2n1 | inconclusive [inhibitor, partial curve]
COc1cc(/C=C2\SC(=Nc3ccccc3)N(CCc3c[nH]c4ccccc34)C2=O)ccc1OC(C)C(=O)O (centres undefined) | inconclusive [inhibitor, single point]
COc1ccccc1NC(=S)NCCc1ccc(OC)c(OC)c1 | inactive
CC(C)Cn1c(=O)c(C(=O)N/N=C/c2cccc(F)c2)c(O)c2ccccc21 | inconclusive [inhibitor, full curve, poor fit]

Compound | Potency
CCC(CC)COC(=O)C1=C(C)NC(=O)NC1c1ccccc1Br (centres undefined) | inconclusive [inhibitor, full curve, poor fit]
CCc1ccccc1NC(=O)CNC(=O)CNC(=O)c1cccs1 | inactive
O=C(Cn1sc2ccccc2c1=O)NC12CC3CC(CC(C3)C1)C2 | inconclusive [inhibitor, full curve]
O=C1N/C(=N\S(=O)(=O)c2ccccc2)S/C1=C\c1cc([N+](=O)[O-])ccc1O | inconclusive [inhibitor, partial curve]
CC(C)(C)Nc1ncnc2c1cnn2-c1ccccc1 | inactive
CC(SCC(=O)NC(C)C1CC2CCC1C2)C(=O)O (centres undefined) | inconclusive [inhibitor, full curve]
COC(=O)c1c(NC(C)=O)sc2c1CCCCC2 | inconclusive [inhibitor, full curve, poor fit]
CC(=O)c1ccc(NC(=O)C2CCN(S(=O)(=O)c3cccc4cccnc34)CC2)cc1 | inconclusive [inhibitor, full curve]
COc1ccc(C(=O)Nc2nc(-c3cccs3)c(NC(C)=O)s2)cc1 | inactive
CC(C)C(NS(=O)(=O)c1cccc2nsnc12)C(=O)N1CCc2ccccc2C1 (centres undefined) | inconclusive [inhibitor, full curve, poor fit]
COc1cccc(NC(=O)c2cc([N+](=O)[O-])ccc2NC(=O)CNCC2CCCO2)c1 (centres undefined) | inactive
CC(C)=C1C2C=CC1C(C(=O)Nc1cccc(C)c1)C2C(=O)O (centres undefined) | inconclusive [inhibitor, partial curve, poor fit]
Cc1cccc(OCCC(=O)OC(C)C(=O)Nc2ccc(Cl)cn2)c1 (centres undefined) | inconclusive [inhibitor, partial curve, poor fit]
CC1=NN(c2ccccc2)C(=O)/C1=C\c1cn(C)c2ccccc12 | inconclusive [inhibitor, full curve, poor fit]
CSc1ccccc1OCc1cc(C(=O)N2CCc3sccc3C2)no1 | inconclusive [inhibitor, full curve]
COc1ccc2[nH]c(C)c(CCN(Cc3cccs3)C(=S)Nc3ccc(F)cc3)c2c1 | inconclusive [inhibitor, full curve, poor fit]
CCc1ccc(CNC(=O)C2CCC(=O)N2C2CCCCC2)cc1 (centres undefined) | inconclusive [inhibitor, full curve, poor fit]
C=CCNC(=O)c1onc(CSc2ccccc2F)c1C(=O)O | inconclusive [inhibitor, full curve]
COC(=O)[C@@H](NCc1cccc(CN[C@H](C(=O)OC)c2ccccc2)c1)c1ccccc1 | inconclusive [inhibitor, full curve, poor fit]
O=C(CCS(=O)(=O)c1ccccc1)N(Cc1cccnc1)c1nc2c(Cl)cccc2s1 | inactive
O=C(O)c1ccccc1NS(=O)(=O)c1ccc2c3c(cccc13)C(=O)N2 | inconclusive [inhibitor, full curve]
O=C(N/N=C/c1ccc2c(c1)OCO2)c1cc(-c2ccco2)nc2ccccc12 | inactive
